The list shows a part of the results.
tested on: T1, C. trachomatis L2/434/Bu expressing GFP (CTL2-GFP); parameters: species or system HeLa; C. trachomatis total inclusion area by high-content imaging, normalised to DMSO; details: total inclusion area; 28.5 h, 10 µM; inhibitor
T1 construct: L2/434/Bu GFP intracellular growth in HeLa cells
Outline: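 After bulk GFP and resorufin fluorescence reads, cells were fixed, stained with Hoechst and imaged by high-content microscopy. Inclusion area and number (GFP) stood in for chlamydial growth, nuclei count (Hoechst) for host cell viability. MICs were derived as for the bulk readout.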

Row | SMILES | % of control remaining
1 | O=C(Nc1cc(Cl)cc(Cl)c1)c1csnn1 [CBK057759] | 38.8325
2 | COc1ccc(CN2CC=CC2C(=O)O)cc1Cn1cncn1 (centres unmarked) [CBK307524] | 88.8654
3 | O=C(COc1ccccc1[N+](=O)[O-])Nc1nc2c(s1)CCC2 [CBK296663] | 95.6304
4 | CC(C)[C@H](NC(=O)Cc1n[nH]c(=O)c2ccccc12)C(=O)O [CBK286607] | 80.5519
5 | O=c1n(Cc2cccnc2)c2cccnc2n1Cc1cccs1 [CBK283903] | 72.0779
6 | O=C(N/N=C\c1cccc2ccccc12)c1ccc(CO)nc1 [CBK261377] | 97.2993
7 | Cc1cccnc1C(NC(=O)C1CCN(Cc2ccoc2)CC1)c1ccc(Cl)cc1 (centres unmarked) [CBK148227] | 103.411
8 | COC(=O)c1c(NC(=O)CCCC(=O)O)sc2c1CCCCC2 [CBK265393] | 112.451
9 | CC(C)NC(=O)N1CCN(Cc2nc(-c3ccoc3)no2)CC1 [CBK306248] | 37.3485
10 | CC(C)(CN)CN(Cc1ccccc1C(F)(F)F)C(=O)Nc1ccc(Cl)cc1Cl [CBK026832C] | 113.542
11 | O=[N+]([O-])c1ccc2c(c1)C=C1CCCCC1(NCc1ccccc1)O2 (centres unmarked) [CBK262716] | 89.7641
12 | O=[N+]([O-])c1ccccc1S(=O)(=O)NCCSCc1c(F)cccc1Cl [CBK265259] | 121.632
13 | Cn1nccc1C(=O)C1CCN(C(=O)c2ccccc2F)CC1 [CBK284425] | 81.9762
14 | CCOC(=O)c1c2c([nH]c(=S)c1C#N)CCCC2 [CBK020049] | 121.52
15 | O=C1N/C(=C/c2cccs2)C(=O)N1Cc1ccccc1F [CBK265601] | 111.436
16 | O=C(CSc1ccccc1)Nc1nccs1 [CBK288213] | 107.67
17 | CCN(CC)c1nc2n(c(=O)n1)CCN2CC [CBK027342] | 56.555
18 | CCOC(=O)Nc1ccc2ccccc2n1 [CBK028207] | 33.6955
19 | Cc1ccc(OCCCC(=O)N2CCCc3c(cnn3C)C2)c(C)c1 [CBK285288] | 82.9596
20 | CC(=O)N1CC(C)(C)c2ccccc21 [CBK003715] | 103.33
21 | COc1ccc(-n2nnnc2SCc2ccc(Cl)cc2)cc1 [CBK101068] | 24.8075

Row | SMILES | % of control remaining
22 | O=C1c2ccccc2C(=O)N1CSc1nnc2c3ccccc3n(CCc3ccccc3)c2n1 [CBK263891] | 77.8652
23 | Cc1cc(C)nc(NC(=N)NC2Cc3ccccc3C2)n1 [CBK287863] | 1.854
24 | N#Cc1cccc(S(=O)(=O)Nc2cccc(C(=O)O)c2)c1 [CBK155699] | 68.8996
25 | Cc1ccc(C(C)(C)C(=O)N2CC(C(=O)N3CCN(C)CC3)C2)cc1 [CBK281371] | 105.476
26 | O=C(CSCc1ccc([N+](=O)[O-])cc1)Nc1ccc(O)cc1C(=O)O [CBK131710] | 38.8385
27 | CC(C)N(C(=O)N1CCC(c2cccnc2)CC1)C(C)C [CBK283850] | 95.4272
28 | CC(=O)N1CCN(c2ccccc2NC(=O)c2ccc(OCc3ccccc3)cc2)CC1 [CBK269775] | 95.88
29 | COc1cccc(NC(=O)CN2CCN(c3nc4ccc([N+](=O)[O-])cc4s3)CC2)c1 [CBK264089] | 97.2932
30 | CCC(=O)c1c(-c2ccccc2)nc2n(C)c3ccccc3n12 [CBK262488] | 43.8215
31 | CN(C)CCOC(=O)C1CCCCCN1C (centres unmarked) [CBK278175G] | 104.346
32 | Cc1nc(N(C)C)ncc1C(=O)NCCSc1nnnn1C [CBK306673] | 96.5259
33 | CN(C)c1ccc([N+](=O)[O-])cc1/C=N/NC(=O)CCc1ccccc1O [CBK263257] | 96.3515
34 | Nc1ncnc2c1nc(Br)n2[C@H]1C[C@@H](O)[C@@H](CO)O1 [CBK201240] | 83.8419
35 | CC(C)Cn1cncc1CNC(=O)Nc1ccc2[nH]nnc2c1 [CBK306549] | 73.2352
36 | O=c1cc(N2CCOCC2)oc2cccc(O)c12 [CBK016536] | 53.685
37 | COc1ccc2c(c1)CCN(C(=O)C1CCc3nn(C)c(=O)n3C1)C2 (centres unmarked) [CBK307613] | 90.7904
38 | Cc1nc2c(c(=O)[nH]1)CN(Cc1ccc(F)cc1)CC2 [CBK284009] | 90.193
39 | CCN(C)S(=O)(=O)c1ccc(Cl)c(Cl)c1 [CBK045392] | 121.389
40 | O=S(=O)(NCC(c1ccccc1)N1CCNCC1)c1ccccc1 (centres unmarked) [CBK262813] | 89.8524
41 | O=C(c1cc(CC2(NCc3ccc(F)cc3)COC2)no1)N1CCCCC1 [CBK289657] | 116.696
42 | COc1ccc(OC)c(NC(=O)CSc2nnc(-c3cccnc3)s2)c1 [CBK269043] | 98.6259

Row | SMILES | % of control remaining
43 | CC(C)N1CCC(=NNC(=O)C(O)c2ccccc2)CC1 (centres unmarked) [CBK019361] | 110.032
44 | Cc1sc(NC(=O)c2ccc(F)cc2Cl)c(C(=O)NCc2cccnc2)c1C [CBK270319] | 98.2867
45 | O=C1NC(=O)C2(CCN(C(=O)c3csc4c3CCCC4)C2)N1 (centres unmarked) [CBK305533] | 62.281
46 | CCOc1ccc(C(C)(CC(N)=O)C(=O)O)cc1 (centres unmarked) [CBK286778] | 99.2779
47 | O=C(N[C@@H]1CNCCC[C@H]1O)c1ccc(OCc2ccccc2)cc1 [CBK289064] | 106.841
48 | CN1CCC[C@H]1c1nc(-c2ccnc(NS(C)(=O)=O)c2)no1 [CBK288884] | 104.021
49 | OCc1cccc(-c2cc(NCc3ccccc3)n3nccc3n2)c1 [CBK037113] | 66.3753
50 | COc1ccc2[nH]cc(CCNC(=O)c3ccco3)c2c1 [CBK116204] | 71.2725
51 | O=C1NC2(CCN(C(=O)C3CCCC3)CC2)Nc2ccccc21 [CBK283962] | 77.6842
52 | O=S(=O)(N1CCCCCC1)N1CCNCC1 [CBK269219C] | 94.5221
53 | CCc1c(C)nn(-c2ccccc2Cl)c1-c1ccccc1 [CBK016736] | 116.432
54 | CC(C)(Oc1ccc(Cl)cc1)C(=O)Nc1ccc(CN2C(=O)CNC2=O)cc1 [CBK296668] | 90.5117
55 | CC(Sc1nncs1)C(=O)N1CCCc2ccccc21 (centres unmarked) [CBK304871] | 90.8106
56 | Cc1sc2nc(SCC(=O)NCCO)nc(N)c2c1C [CBK264423] | 112.321
57 | COc1ccc2[nH]cc(/C=C3\C(=O)Nc4ncccc43)c2c1 [CBK017826] | 99.9405
58 | CCC(NC1CCc2nc(C)cn2C1)c1ccccc1O (centres unmarked) [CBK306012] | 13.6193
59 | N/C(=N\OC(=O)COc1cccc2ccccc12)c1ccccn1 [CBK262999] | 88.0535
60 | O=C(CCN1CCOCC1)Nc1ccc(Br)cc1C(=O)c1ccccc1 [CBK263165] | 99.7154
61 | Cc1c(C(C)N)cnn1-c1ccc(C#N)cc1 (centres unmarked) [CBK305869] | 29.1901
62 | COc1cccc(C(=O)NCC(c2cccs2)N2CCOCC2)c1 (centres unmarked) [CBK305075] | 62.7471
63 | CN(C)c1nc(Oc2ccc(OCCOc3ccccc3)nn2)nc(N(C)C)n1 [CBK264976] | 91.5176

Row | SMILES | % of control remaining
64 | C/C(=N\N=C1/NC(=O)C(CC(=O)O)S1)c1ccc(CC(C)C)cc1 (centres unmarked) [CBK006661] | 81.6736
65 | COc1cc(NC(=O)C(C)Oc2ccc(Cl)cc2C)c(C(=O)O)cc1OC (centres unmarked) [CBK266430] | 91.7475
66 | CC(SCc1ccccc1)C(=O)NCc1ccnc(OCC(F)(F)F)c1 (centres unmarked) [CBK298325] | 92.9868
67 | O=[N+]([O-])c1cc([N+](=O)[O-])c2cccnc2c1NNc1nncc2ccccc12 [CBK110409] | 39.1065
68 | CN(C)C(=O)CN1N=C(C(C)(C)C)Cn2c(cc3ccccc32)C1=O [CBK284210] | 62.9108
69 | N#Cc1ccc(CNC2(Cc3cc(CO)on3)COC2)cc1 [CBK289647] | 112.994
70 | COC(=O)CCc1ccc(S(=O)(=O)N2CCCN(Cc3c[nH]c(=O)[nH]c3=O)CC2)cc1 [CBK063082] | 71.8009
71 | N#Cc1ccc(CN2CCCCC2c2[nH]ncc2C(N)=O)c(Cl)c1 (centres unmarked) [CBK304261] | 49.5545
72 | Cc1cccc(CN2CCC(NC(=O)c3cn(C(C)(C)C)nn3)CC2)c1 [CBK305927] | 23.6729
73 | c1ccc(-c2csc3ncnc(-n4cnc5ccccc54)c23)cc1 [CBK264494] | 94.2758
74 | Nc1nnc(Sc2nccc(C(F)(F)F)n2)s1 [CBK020023] | 85.7776
75 | Cc1ccc(C(=O)NC(=S)Nc2ccc(C(=O)O)c(Cl)c2)cc1Cl [CBK265068] | 102.636
76 | O=C(O)CCC(=O)N1CCN(C2CCCCC2)CC1 [CBK286918] | 93.2235
77 | CN(C)c1cccc(-c2cc(NC3CCCCC3)ncn2)c1 [CBK090900] | 93.8021
78 | Cc1cc(C)nc(SCc2nc(N)nc(-c3ccccc3O)n2)n1 [CBK266725] | 115.48
79 | Cc1cccn2c(=O)c(/C=C3\SC(=S)NC3=O)c(NCCCN3CCOCC3)nc12 [CBK264904] | 105.16
80 | O=C(NCCc1noc(CO)n1)N(Cc1ccsc1)C1CCCCC1 [CBK307273] | 78.5447
81 | O=C(Cc1c[nH]c2ccccc12)N1CCC2(CCN(C(=O)CC3CCCCC3)C2)C1 (centres unmarked) [CBK131422] | 80.3276
82 | O=C(Nc1cccc(-c2nc3ncccc3o2)c1)c1ccc(OCc2ccccc2)cc1 [CBK263139] | 95.6174
83 | CC1=C[C@@H](CO)[C@H](C(C)C)C[C@H]1Cc1nnc(-c2ccc(N(C)C)cc2)o1 [CBK289224] | 20.6104

Source: article PMC12040169 (PLOS Biology, 2025)
